According to PubChem BioAssay AID1768 (National Center for Advancing Translational Sciences (NCATS), 2009):
Out of some 270,000 compounds screened, about 620 (0.23%) were called active. The inconclusive results got no clear call from the source; some entries with a clear call stand among them for comparison. The call rests on the fitted dose curve; in most records, active means well fitted inhibition curve with a large enough effect in the polarisation, with a control signal flat (not every such curve was filed as active); inconclusive means small, poorly fitted or top-dose-only effect, or effect the other way, or a change in a side signal; inactive means no such curve, though single readings can be large or run the other way; the % refers to the polarisation. Potencies of inconclusive entries are doubtful fits and often do not repeat. A note “side channel” means that the fit belongs to a control or component signal, not to the main read-out.

These compounds were tested against Menin (Homo sapiens) (UniProt O00255) (assay: qHTS Assay for Inhibitors Targeting the Menin-MLL Interaction in MLL Related Leukemias: Competition With Texas Red Labeled MLL-derived Mutant Peptide). Settings: fluorescence polarization; series mostly up to 61.6 µM.
UniProt O00255, sequence (O00255 whole entry, looked up): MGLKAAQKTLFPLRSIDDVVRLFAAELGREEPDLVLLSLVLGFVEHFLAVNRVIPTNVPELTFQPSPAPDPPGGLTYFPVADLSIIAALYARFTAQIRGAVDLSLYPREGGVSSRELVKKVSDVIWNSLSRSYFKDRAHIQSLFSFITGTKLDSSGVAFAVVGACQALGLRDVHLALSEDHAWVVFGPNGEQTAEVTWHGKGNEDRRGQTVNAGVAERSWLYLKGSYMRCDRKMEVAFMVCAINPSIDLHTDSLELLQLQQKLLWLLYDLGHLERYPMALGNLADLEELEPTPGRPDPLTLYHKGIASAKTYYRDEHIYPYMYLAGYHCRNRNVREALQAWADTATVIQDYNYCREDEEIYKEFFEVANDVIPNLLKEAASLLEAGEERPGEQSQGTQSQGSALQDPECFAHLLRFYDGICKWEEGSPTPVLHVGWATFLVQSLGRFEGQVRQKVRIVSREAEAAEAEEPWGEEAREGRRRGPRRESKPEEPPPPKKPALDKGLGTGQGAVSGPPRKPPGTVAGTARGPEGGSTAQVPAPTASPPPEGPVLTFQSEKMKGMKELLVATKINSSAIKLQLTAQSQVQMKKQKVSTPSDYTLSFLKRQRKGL
Potency means the concentration at half of the fitted maximal effect; tags describe the fitted curve by direction and shape or compound fluorescence and quenching.

Row | SMILES | Potency
1 | Cc1ccc(NS(=O)(=O)c2ccc(NC(=O)CSc3ccc(Cl)cc3)cc2)c(C)c1 | inconclusive: 3.98 µM [quencher, side channel, full curve, poor fit]
2 | COc1cccc(OC)c1C(=O)OCC(=O)NCCCc1ccccc1 | inconclusive: 31.6 µM [inhibitor, partial curve]
3 | O=c1c(Cc2c(F)cccc2Cl)c(O)ccn1CC1CCCO1 (stereo not given) | inactive
4 | CC(C)(C)c1ccc(C(=O)Nc2cccc([N+](=O)[O-])c2)cc1 | inconclusive: 6.31 µM [quencher, side channel, full curve]
5 | CN(C)c1nc(Oc2ccc(C(=O)OCC(=O)Nc3ccccc3)cc2)nc(N(C)C)n1 | inconclusive: 39.8 µM [quencher, side channel, single point]
6 | O=C1CC(N(CCc2ccccc2)C(=S)Nc2ccccc2)C(=O)N1c1ccc(Br)cc1 (stereo not given) | inconclusive: 7.08 µM [quencher, side channel, single point]
7 | CCn1c(O)c(/C=C2\C=Nc3ccccc32)sc1=Nc1ccc(C)cc1 | inconclusive: 11.2 µM [quencher, side channel, partial curve]
8 | Cc1ccc(O)c(CNc2cccc3cccnc23)c1 | inconclusive: 31.6 µM [quencher, side channel, partial curve]
9 | COCCCNC(=O)Cc1c(C)c2c(cc(C)c3c(C)c(C)oc32)oc1=O | inconclusive: 10 µM [inhibitor, partial curve]
10 | NC(=O)c1ccc(NC(=O)Cc2csc(-c3ccccc3)n2)cc1 | inconclusive: 35.5 µM [fluorescent, side channel, single point]
11 | Cc1ccc(C)c(S(=O)(=O)NC(C)C(=O)Nc2ccc(-c3nc4ccccc4s3)cc2)c1 (stereo not given) | inconclusive: 11.2 µM [quencher, side channel, partial curve]
12 | CNS(=O)(=O)c1ccc2nc(NC(=O)/C=C/c3ccco3)sc2c1 | inconclusive: 7.94 µM [quencher, side channel, full curve]
13 | CCOc1ccc(NC(=O)c2ccc(NC(=O)CSc3nc4ccccc4c(=O)[nH]3)cc2)cc1 | inconclusive: 22.4 µM [fluorescent, side channel, single point]
14 | NC(=O)c1cc(S(=O)(=O)N2CCN(c3cccc(Cl)c3)CC2)cs1 | inconclusive: 31.6 µM [fluorescent, side channel, single point]
15 | Cc1[nH][nH]c(=O)c1C(c1c(C)[nH][nH]c1=O)c1cn(Cc2cccc3ccccc23)c2ccccc12 | inconclusive: 39.8 µM [quencher, side channel, single point]
